Results published in the antibiotic and cytotoxicity screens of Wong et al. (2023).
This is one part of the list.

Experiments:
HSkMC = human skeletal muscle cells; experiment: cytotoxicity call (relative viability < 0.9); conditions: 10 µM
HepG2 = experiment: cytotoxicity call (relative viability < 0.9); conditions: 10 µM
S. aureus RN4220 = experiment: growth inhibition call (relative growth <= 0.2); conditions: 50 µM

| Compound | cytotoxicity call (HSkMC) | cytotoxicity call (HepG2) | growth inhibition call (S. aureus RN4220) |
| --- | --- | --- | --- |
| C[C@H]1CN([C@@H](C)CO)C(=O)c2cc(C#CC3(O)CCCC3)cnc2O[C@H]1CN(C)S(C)(=O)=O | inactive | inactive | inactive |
| C[C@@H]1CCCCO[C@H](CN(C)S(C)(=O)=O)[C@H](C)CN([C@@H](C)CO)C(=O)c2cc(N(C)C)ccc2O1 | inactive | inactive | inactive |
| COC(=O)C(CC#Cc1ccc2c(c1)[C@]1(C(=O)N2)[C@H](c2ccc(OCCO)cc2)N2[C@H](c3ccccc3)[C@H](c3ccccc3)OC(=O)[C@H]2[C@@H]1C(=O)N1CCc2cc(OC)c(OC)cc2C1)C(=O)OC | inactive | inactive | inactive |
| C[C@@H]1CN([C@@H](C)CO)C(=O)Cc2cc(NS(=O)(=O)c3ccc(F)cc3)ccc2O[C@@H]1CN(C)Cc1ccc(-c2ccccc2)cc1 | active | active | inactive |
| C[C@@H]1O[C@H](Oc2cc(O)c3c(=O)c(O[C@H]4O[C@H](CO)[C@H](O)[C@H](O)[C@@H]4O[C@@H]4O[C@H](C)[C@@H](O)[C@H](O)[C@@H]4O)c(-c4ccc(O)c(O)c4)oc3c2)[C@@H](O)[C@H](O)[C@@H]1O | inactive | inactive | inactive |
| NNC(=O)c1cccc(C(=O)NO)c1 | inactive | inactive | inactive |
| COc1ccc(NC(=O)Nc2ccc3c(c2)C(=O)N([C@@H](C)CO)C[C@@H](C)[C@H](CN(C)S(=O)(=O)c2ccccc2)OCCCC[C@@H](C)O3)cc1 | inactive | inactive | inactive |
| O=C(C[C@@H]1C[C@H]2c3cc(NC(=O)Nc4ccc(C(F)(F)F)cc4)ccc3O[C@H]2[C@H](CO)O1)NC1CCCCC1 | inactive | inactive | inactive |
| O=C(CCCCCNC(=O)OCCCCO[C@@H]1C[C@H](c2ccc(C(F)(F)F)cc2)C=C(C(=O)N2CCN(Cc3ccccc3)CC2)O1)NO | inactive | inactive | inactive |
| Cc1ccc(S(=O)(=O)N(C)C[C@@H]2Oc3c(NS(=O)(=O)c4cn(C)cn4)cccc3C(=O)N([C@H](C)CO)C[C@@H]2C)cc1 | inactive | inactive | inactive |
| C[C@@H]1CCCCO[C@H](CN(C)S(=O)(=O)c2cn(C)cn2)[C@H](C)CN([C@@H](C)CO)C(=O)c2cc(NC(=O)c3ccncc3)ccc2O1 | inactive | inactive | inactive |
| O=C(C[C@H]1CC[C@H]2[C@@H](COC[C@@H](O)CN2S(=O)(=O)c2ccccc2F)O1)NCc1ccccc1Cl | inactive | inactive | inactive |
| CN(C)CCCC[C@@H]1NC(=O)[C@H]2C[C@@H](C(=O)NCCCCCCNC(=O)CS)[C@@H](c3ccc(O)cc3)N2C1=O | inactive | inactive | inactive |
| CC(=O)c1ccc(S(=O)(=O)N2[C@@H]3CC[C@@H](C3)[C@H]2c2nc3cccc(OCc4ccccc4)c3[nH]2)cc1 | inactive | inactive | inactive |
| CN1CCCN(c2ccccc2CN)CC1 | inactive | inactive | inactive |
| O=C(C[C@@H]1C[C@@H]2c3cc(NC(=O)Nc4ccccc4)ccc3O[C@@H]2[C@H](CO)O1)NCCN1CCCCC1 | inactive | inactive | inactive |
| Oc1cc(O)c2c(c1)OC(c1cc(O)c(O)c(O)c1)C(O)C2c1c(O)cc(O)c2c1OC(c1cc(O)c(O)c(O)c1)C(O)C2c1c(O)cc(O)c2c1OC(c1cc(O)c(O)c(O)c1)C(O)C2 (stereo not drawn) | inactive | inactive | inactive |
| C[C@@H]1CN([C@@H](C)CO)C(=O)c2cc(NS(=O)(=O)c3ccc(F)cc3)ccc2O[C@H]1CN(C)C(=O)Nc1cccc2ccccc12 | inactive | inactive | inactive |
| COc1ccc(S(=O)(=O)Nc2ccc3c(c2)C(=O)N([C@@H](C)CO)C[C@@H](C)[C@@H](CN(C)Cc2ccncc2)O3)cc1 | inactive | inactive | inactive |
| Cc1ccc(S(=O)(=O)N(C)C[C@H]2OCCCC[C@@H](C)Oc3ccc(NC(=O)CCCCCC(=O)Nc4ccccc4N)cc3C(=O)N([C@H](C)CO)C[C@@H]2C)cc1 | inactive | inactive | inactive |
| Cc1ccc(S(=O)(=O)N(C)C[C@@H]2Oc3c(NC(=O)c4cc(C)nn4C)cccc3C(=O)N([C@H](C)CO)C[C@@H]2C)cc1 | inactive | inactive | inactive |
| C[C@H](CO)N1C[C@H](C)[C@H](CN(C)C(=O)c2cc(-c3ccccc3)on2)OCc2cnnn2CCCC1=O | inactive | inactive | inactive |
| Cc1nnc(C(C)C)n1C1C[C@H]2CC[C@@H](C1)N2CC[C@H](NC(=O)C1CCC(F)(F)CC1)c1ccccc1 (stereo partly drawn) | inactive | inactive | inactive |
| COc1ccccc1S(=O)(=O)N[C@H]1C=C[C@H](CC(=O)N2CCOCC2)O[C@H]1CO | inactive | inactive | inactive |
| C[C@H](CO)N1C[C@H](C)[C@H](CN(C)C(=O)Nc2cccc3ccccc23)Oc2ccc(NC(=O)Cc3ccccc3)cc2CC1=O | inactive | inactive | inactive |
| COc1ccc2c3c(n(c2c1)C)[C@H](CO)N(C[C@]13CN(Cc2cccnc2)C1)S(=O)(=O)c1ccc(cc1)C | inactive | inactive | inactive |

| Compound | cytotoxicity call (HSkMC) | cytotoxicity call (HepG2) | growth inhibition call (S. aureus RN4220) |
| --- | --- | --- | --- |
| C[C@H]1CCCCO[C@@H](CN(C)C(=O)Nc2ccc3c(c2)OCO3)[C@@H](C)CN([C@@H](C)CO)C(=O)c2cc(NC(=O)CCC(F)(F)F)ccc2O1 | inactive | inactive | inactive |
| C[C@@H]1CN([C@@H](C)CO)S(=O)(=O)c2ccc(C#Cc3ccncc3)cc2O[C@@H]1CN(C)C(=O)C1CCOCC1 | inactive | active | inactive |
| COCC#Cc1ccc2c(c1)O[C@H](CN(C)S(C)(=O)=O)[C@H](C)CN([C@@H](C)CO)S2(=O)=O | inactive | inactive | inactive |
| COc1ccc2c3c(n(c2c1)C)[C@H](CO)N(C[C@]13CN(C1)S(=O)(=O)C)C(=O)CN(C)C | inactive | inactive | inactive |
| COc1ccc([Si](C)(C)[C@H]2[C@H](CC(=O)N3Cc4ccccc4C[C@H]3CO)O[C@@]3(C(=O)N(Cc4ccc(N5C(=O)c6cccc7cccc5c67)cc4)c4ccccc43)[C@@H]2C)cc1 | inactive | inactive | inactive |
| O=C(Cc1ccncc1)Nc1ccc2c(c1)[C@H]1C[C@@H](CC(=O)N3CCc4ccccc4C3)O[C@@H](CO)[C@H]1O2 | inactive | inactive | inactive |
| CC(C)NC(=O)Nc1ccc2c(c1)CC(=O)N([C@@H](C)CO)C[C@H](C)[C@H](CN(C)S(=O)(=O)c1cccs1)O2 | inactive | inactive | inactive |
| O=C(CCCCCCC(=O)N/N=C/[C@H](O)[C@@H](O)[C@H](O)[C@H](O)CO)NO | inactive | inactive | inactive |
| Cc1noc(C)c1S(=O)(=O)N(C)C[C@H]1OCCCC[C@H](C)Oc2ccc(NC(=O)Nc3ccc(F)cc3)cc2C(=O)N([C@@H](C)CO)C[C@@H]1C | inactive | inactive | inactive |
| COC(=O)/C=C/C(=O)OC | inactive | inactive | inactive |
| O=C(C[C@@H]1CC[C@@H]2[C@H](COC[C@@H](O)CN2C(=O)c2ccccc2)O1)NCCCN1CCOCC1 | inactive | inactive | inactive |
| CO[C@H]1C[C@@H](C[C@@H](C)[C@H]2CC(=O)[C@@H](C)/C=C(\C)[C@@H](O)[C@@H](OC)C(=O)[C@@H](C)C[C@@H](C)/C=C/C=C/C=C(\C)[C@H](OC)C[C@H]3CC[C@@H](C)[C@@](O)(O3)C(=O)C(=O)N3CCCC[C@@H]3C(=O)O2)CC[C@@H]1OC(=O)C(C)(CO)CO | inactive | inactive | inactive |
| CN(C)CC(=O)N[C@H]1C=C[C@H](CC(=O)NCCN2CCCCC2)O[C@@H]1CO | inactive | inactive | inactive |
| O=C1OCC=C[C@H]2O[C@@]34C=CCN(c5ccc6ccccc6c5)C(=O)[C@H]3N(CCCCCCO)C(=O)[C@@H]4[C@@H]12 | inactive | inactive | inactive |
| O=C(C[C@@H]1CC[C@@H]2[C@H](COC[C@H](O)CN2C(=O)c2cnccn2)O1)NCc1ccc(Oc2ccccc2)cc1 | inactive | inactive | inactive |
| C[C@@H]1CN([C@H](C)CO)C(=O)c2cc(NC(=O)Nc3cccc4ccccc34)ccc2O[C@@H]1CN(C)C(=O)Nc1ccc2c(c1)OCO2 | inactive | inactive | inactive |
| CN1C(=O)C[C@@H]2[C@@H]1CCN2C(=O)c1csnn1 | inactive | inactive | inactive |
| Cc1ccc(S(=O)(=O)Nc2ccc3c(c2)C(=O)N([C@H](C)CO)C[C@H](C)[C@@H](CN(C)S(=O)(=O)c2cn(C)cn2)O3)cc1 | inactive | inactive | inactive |
| Cc1noc(C)c1NC(=O)N(C)C[C@H]1Oc2c(NC(=O)c3cnccn3)cccc2C(=O)N([C@H](C)CO)C[C@@H]1C | inactive | inactive | inactive |
| C[C@H](CO)N1C[C@H](C)[C@H](CN(C)C(=O)Nc2ccc(C(F)(F)F)cc2)OCc2cnnn2CCCC1=O | inactive | active | inactive |
| C[C@H](CO)N1C[C@H](C)[C@H](CN(C)Cc2cccc(C(F)(F)F)c2)OCc2ccccc2-c2ccccc2C1=O | inactive | inactive | inactive |
| C[C@@H]1CN(C(=N)N)C[C@H](C)O1 | inactive | inactive | inactive |
| COc1ccc(CN(C)C[C@H]2OCCCC[C@@H](C)Oc3ccc(NC(=O)Nc4ccc5c(c4)OCO5)cc3C(=O)N([C@@H](C)CO)C[C@H]2C)cc1 | inactive | inactive | inactive |
| Cc1ccc(S(=O)(=O)N(C)C[C@H]2Oc3ccc(NC(=O)c4ccncc4)cc3C(=O)N([C@H](C)CO)C[C@H]2C)cc1 | inactive | inactive | inactive |
| Cc1noc(C)c1NC(=O)N(C)C[C@H]1OCCCC[C@@H](C)Oc2ccc(NS(=O)(=O)c3ccccc3)cc2C(=O)N([C@H](C)CO)C[C@H]1C | inactive | inactive | inactive |
